The source of these data is the antibiotic and cytotoxicity screens of Wong et al. (2023).

Each structure is given as a SMILES string. The list shows a part of the results.

The subject of assay [1] is HSkMC (human skeletal muscle cells). Put plainly: cytotoxicity call (relative viability < 0.9). The note with it: 10 µM.
In assay [2] the test system is HepG2. Briefly: cytotoxicity call (relative viability < 0.9). The note with it: 10 µM.
Assay [3] concerns S. aureus RN4220. Briefly: growth inhibition call (relative growth <= 0.2). To be noted: 50 µM.

As for `Cc1ccc(-c2ccc3c(c2)O[C@H](CN(C)Cc2cncnc2)[C@H](C)CN([C@@H](C)CO)S3(=O)=O)cc1`, the cytotoxicity call in assay [1] and in assay [2] was “inactive” throughout. The growth inhibition call in assay [3] is “inactive”.
`COc1ccc(S(=O)(=O)Nc2cccc3c2O[C@H](CN(C)S(=O)(=O)c2ccc(OC)cc2)[C@@H](C)CN([C@@H](C)CO)C3=O)cc1`: the cytotoxicity call in assay [1] and in assay [2] was “inactive” throughout. In addition, the growth inhibition call in assay [3] was “inactive”.
`COc1ccc(-c2ccccn2)cc1`: the cytotoxicity call in assay [1] and in assay [2] was “inactive” each time. The growth inhibition call in assay [3] was “inactive”.
`CC(C)(C)C1CCC(OC[C@@H](O)CN2CCC(CN3C(=O)c4cccc5cccc(c45)C3=O)CC2)CC1` (some centres undefined): the cytotoxicity call in assay [1] and in assay [2] was “active” each time. For the same compound, the growth inhibition call in assay [3] is “active”.
For the compound `COc1ccc(NC(=O)Nc2ccc3c(c2)C(=O)N([C@@H](C)CO)C[C@H](C)[C@H](CN(C)Cc2ccc(C(F)(F)F)cc2)O3)cc1`, the cytotoxicity call in assay [1] and in assay [2] was “inactive” in each case. The growth inhibition call in assay [3] was “inactive”.
With `COc1ccc(CN(C)C[C@H]2Oc3c(NS(C)(=O)=O)cccc3C(=O)N([C@@H](C)CO)C[C@H]2C)cc1`, the cytotoxicity call in assay [1] and in assay [2] was “inactive” each time. For the same compound, the growth inhibition call in assay [3] is “inactive”.
On to `O=C(O)c1ccccn1`, for which the cytotoxicity call in assay [1] and in assay [2] was “inactive” throughout. The growth inhibition call in assay [3] is “inactive”.
On to `Cc1ccc(S(=O)(=O)N(C)C[C@@H]2OCCCC[C@@H](C)Oc3ccc(NC(=O)Nc4ccc5c(c4)OCO5)cc3C(=O)N([C@@H](C)CO)C[C@H]2C)cc1`, for which the cytotoxicity call in assay [1] and in assay [2] was “inactive” each time. Further, the growth inhibition call in assay [3] was “inactive”.
